# Assay results: the supplement of paper PMC8728848
# This is one part of the list.
# B1: InvD YPIII (Yersinia pseudotuberculosis), B1JSC0 (protein)
# chain: MIKYFSFFKKPEPIVGILPNRQSHHILPTHIRRVAWGTLLLQLFIPLSVSFSPAIAAMKASKADTMVSYSSTEPYVLGSGETVAMVAKKYGITVDELKKINIYRTFSRPFTALTTGDEIDIPRKASPFSVDNNKDNRLSVENTLAGHAVAGATALSNGDVAKSGERMVRSAASNEFNNSAQQWLSQFGTARVQLNINDDFHLDGSAADVLIPLYDNEKSILFTQLGARNKDSRNTVNMGAGVRTFQGNWMYGANTFFDNDLTGKNRRIGVGAEAWTDYLKLSANNYFGITDWHQSRDFIDYNERPANGYDLRAEAYLPSYPQLGGKAMYEKYRGDDVALFGKDNRQKNPHAITAGVNYTPIPLVTIGAEHRAGKGGQNDSNINFQLNYRLGETWQSHIDPSAVAASRTLAGSRYDLVERNNHIVLDYQKQNLVRLSLPDSLAGDPFSQLSVTAQVTATHGLERIDWQSAELMAAGGVLKQTSKNGLEITLPEYQMNRTGGNSYILNAIAYDTQGNASSQASMLITVNAQKINIANSTLVAVPINIEANNSDTSVVTLTLKDDNNIPVTGQDVTFLSPLGTLSAMTDSGNGVYTATLTAGTVSGTTAVSSNINGSALDMTPATVTLNGNSGELSITHSMLVAAPVNIEANGSDTSVVTLTLRDSNNNPVTGQTVTFAGTLGTLGAVTEGSSGVYTATLTAGIMVGTSSITASVNSTALGVTPATVTLNGDSGNLSTTNSTLVAAPVNIEANSSDTSVVTLTLRDNNNNPVTGQTVVFTSTLGTLGNVTEQASGVYTATLTAGTVSGVASLSVSVGGNALGVTPATVTLNGDSGNLSTTNSTLVAAPVNIEANSSDTSVVTLTLRDNNNNPVTGQTVNFAGTLGTLGTVSEGSSGVYTTTLTAGTVAGVASLSVNVGGNALGVTPATVTLNGNSGNLSATNSTLVAAPVNIEANSSDTSVVTLTLRDNNNNPVTGQTVAFTSTLGTLGNVTEQASGVYTATLTAGTVSGVASLSVSVNSNALGVTPATVTLNGDSGNLSTTNSTLVAAPVNIEANSSDTSVVTLTLRDNNNNPVTGQTVAFTSTLGTLGNVTEQASGLYTATLTAGTVSGVASLSVNVGGNALGVTPATVTLNGDSGNLSATNSTLVAAPVNIEANSSDTSVVTLTLRDNNNNPVTGQTVAFTSTLGTLGNVTEQASGLYTATLTAGTVSGVASLSVNVGGTALGVTPATVTLNGDSGNLSTTNSTLVAAPVNIEANSSDTSVVTLTLRDNNNNPVTGQTVAFTSTLGTLGNVTEQASGLYTATLTAGTVSGVASLSVSVNSTALGVTPATVTLNGDSGNLSTTNSTLVAAPVNIEANSSDTSVVTLTLRDNNNNPVTGQTVAFTSTLGTLGNVTEQASGVYTATLTAGTVAGVASLSVNVGGNALGVTPATVTLNGDSGNLSTTNSTLVAAPVNIEANSSDTSVVTLTLRDNNNNPVTGQTVAFTSTLGTLGNVTEQASGVYTATLTAGTVSGVASLSVSVGSSALGVTPATVTLNGDSGNLSTTNSTLVAAPVNIEANNSDTSVVTLTLRDNNNNPVTGQTVAFTSTLGTLGNVTEQASGVYTATLTAGTVSGVASLSVSVNSNALGVTPATVTLNGDSGNLSTTNSTLVAAPVNIEANSSDTSVVTLTLRDNNNNPVTGQTVVFTSTLGTLGNVTEQASGLYTATLTAGTVSGVASLSVSVGGNALGVTGNITLAPGALDAARSILAVNKPSINADDRIGSTITFTAQDAQGNAITGLDIAFMTDLENSQIMTLVDHNDGTYTANINGTQTGIANIAVQSSGATIAGLAATMVTITPGAWNTTQATPVMTVALPITTCQSSSGVYKRYYIGIVTHELYDNYGNEISGILTYNLGAGRYTTVTSQNSSVSGSNGLTRRSNSPVSHFILTSDAYTSQAACYAERIANVNVTITVTAITDDFKTSAVNKVFILGTGSN
# Tests used:
# Test in all cases: glycan array binding signal (z-score within array); higher = stronger binding
# Settings in all cases: glycan notation: IUPAC condensed, linker removed
# [1] = biological target: Gal(b1-3)[Fuc(a1-4)]GlcNAc(b1-3)Gal(b1-4)[Fuc(a1-3)]GlcNAc
# Outline: (§1)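 Negative Z-scores can be read as non-binding. The Z-score is calculated within each array and then averaged across arrays of one protein sequence at different concentrations or buffers and across linkers. Arrays, 3228 in all, were curated from the Consortium for Functional Glycomics database and kept only where the protein sequence was available.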
# [2] = biological target: Gal(b1-3)[Fuc(a1-4)]GlcNAc(b1-6)GalNAc
# Outline: as §1
# [3] = biological target: Gal(b1-3)[GlcNAc(b1-6)]GalNAc
# Outline: as §1
# [4] = biological target: Gal(b1-3)[Neu5Ac(a2-6)]GalNAc
# Outline: as §1
# [5] = biological target: Gal(b1-3)[Neu5Ac(a2-6)]GlcNAc(b1-4)Gal(b1-4)Glc
# Outline: as §1
# [6] = biological target: Gal(b1-3)[Neu5Ac(b2-6)]GalNAc
# Outline: as §1
# [7] = biological target: Gal(b1-4)Gal
# Outline: as §1
# [8] = biological target: Gal(b1-4)GalNAc(a1-3)[Fuc(a1-2)]Gal(b1-4)GlcNAc
# Outline: as §1
# [9] = biological target: Gal(b1-4)GalNAc(b1-3)[Fuc(a1-2)]Gal(b1-4)GlcNAc
# Outline: as §1
# [10] = biological target: Gal(b1-4)Glc
# Outline: as §1
# [11] = biological target: Gal(b1-4)Glc6S
# Outline: as §1
# [12] = biological target: Gal(b1-4)GlcNAc
# Outline: as §1
# [13] = biological target: Gal(b1-4)GlcNAc(a1-6)Gal(b1-4)GlcNAc
# Outline: as §1
# [14] = biological target: Gal(b1-4)GlcNAc(b1-2)Man
# Outline: as §1
# [15] = biological target: Gal(b1-4)GlcNAc(b1-2)Man(a1-3)Man(b1-4)GlcNAc(b1-4)GlcNAc
# Outline: as §1
# [16] = biological target: Gal(b1-4)GlcNAc(b1-2)Man(a1-3)[Gal(b1-4)GlcNAc(b1-2)Man(a1-6)]Man(b1-4)GlcNAc(b1-4)GlcNAc
# Outline: as §1
# [17] = biological target: Gal(b1-4)GlcNAc(b1-2)Man(a1-3)[Gal(b1-4)GlcNAc(b1-2)Man(a1-6)]Man(b1-4)GlcNAc(b1-4)[Fuc(a1-6)]GlcNAc
# Outline: as §1
# [18] = biological target: Gal(b1-4)GlcNAc(b1-2)Man(a1-3)[Gal(b1-4)GlcNAc(b1-2)Man(a1-6)][Gal(b1-4)GlcNAc(b1-4)]Man(b1-4)GlcNAc(b1-4)[Fuc(a1-6)]GlcNAc
# Outline: as §1
# [19] = biological target: Gal(b1-4)GlcNAc(b1-2)Man(a1-3)[Gal(b1-4)GlcNAc(b1-2)Man(a1-6)][GlcNAc(b1-4)]Man(b1-4)GlcNAc(b1-4)[Fuc(a1-6)]GlcNAc
# Outline: as §1
# [20] = biological target: Gal(b1-4)GlcNAc(b1-2)Man(a1-3)[GlcNAc(b1-2)Man(a1-6)]Man(b1-4)GlcNAc(b1-4)GlcNAc
# Outline: as §1
# [21] = biological target: Gal(b1-4)GlcNAc(b1-2)Man(a1-3)[GlcNAc(b1-4)][Gal(b1-4)GlcNAc(b1-2)Man(a1-6)]Man(b1-4)GlcNAc(b1-4)GlcNAc
# Outline: as §1
# [22] = biological target: Gal(b1-4)GlcNAc(b1-2)Man(a1-3)[Man(a1-6)]Man(b1-4)GlcNAc(b1-4)GlcNAc
# Outline: as §1
# [23] = biological target: Gal(b1-4)GlcNAc(b1-2)Man(a1-6)Man(b1-4)GlcNAc(b1-4)GlcNAc
# Outline: as §1
binder,measurement,setting,value
B1,glycan array binding signal (z-score),[1],-0.071
same,glycan array binding signal (z-score),[2],-0.151
same,glycan array binding signal (z-score),[3],-0.2
same,glycan array binding signal (z-score),[4],0.137
same,glycan array binding signal (z-score),[5],-0.184
same,glycan array binding signal (z-score),[6],-0.06
same,glycan array binding signal (z-score),[7],-0.168
same,glycan array binding signal (z-score),[8],-0.092
same,glycan array binding signal (z-score),[9],-0.161
same,glycan array binding signal (z-score),[10],-0.098
same,glycan array binding signal (z-score),[11],-0.213
same,glycan array binding signal (z-score),[12],-0.187
same,glycan array binding signal (z-score),[13],-0.321
same,glycan array binding signal (z-score),[14],-0.152
same,glycan array binding signal (z-score),[15],-0.355
same,glycan array binding signal (z-score),[16],-0.06
same,glycan array binding signal (z-score),[17],0.529
same,glycan array binding signal (z-score),[18],-0.312
same,glycan array binding signal (z-score),[19],-0.026
same,glycan array binding signal (z-score),[20],0.014
same,glycan array binding signal (z-score),[21],-0.317
same,glycan array binding signal (z-score),[22],0.326
same,glycan array binding signal (z-score),[23],-0.32
